# Test results as given in the supplement of paper PMC8728848.
# The list shows a part of the results.
# B1: DC SIGN CRD (Homo sapiens), Q9NNX6 (protein)
# chain: QPCPWEWTFFQGNCYFMSNSQRNWHDSITACKEVGAQLVVIKSAEEQNFLQLQSSRSNRFTWMGLSDLNQEGTWQWVDGSPLLPSFKQYWNRGEPNNVGEEDCAEFSGNGWNDDKCNLAKFWICKKSAWSHPQFEK
# How the values were obtained:
# Test in all cases: glycan array binding signal (z-score within array); higher = stronger binding
# Conditions in all cases: glycan notation: IUPAC condensed, linker removed
# [1] = biological target: GlcNAc(b1-2)Man(a1-3)[GlcNAc(b1-2)Man(a1-6)]Man(b1-4)GlcNAc(b1-4)GlcNAc
# Procedure, shortened: (§1)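 The binding signal is a Z-score computed within each array and averaged over linkers. Arrays of the same protein sequence at different concentrations or buffers were also averaged together. Data originate from 3228 arrays in the Consortium for Functional Glycomics database, kept only where the protein sequence was available.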
# GlcNAc(b1-3)Gal = biological target: GlcNAc(b1-3)Gal
# Procedure, shortened: as §1
# [2] = biological target: GlcNAc(b1-3)Gal(b1-3)GalNAc
# Procedure, shortened: as §1
# GlcNAc(b1-3)Gal(b1-4)Glc = biological target: GlcNAc(b1-3)Gal(b1-4)Glc
# Procedure, shortened: as §1
# [3] = biological target: GlcNAc(b1-3)Gal(b1-4)GlcNAc
# Procedure, shortened: as §1
# [4] = biological target: GlcNAc(b1-3)Gal(b1-4)GlcNAc(b1-3)Gal(b1-4)GlcNAc
# Procedure, shortened: as §1
# GlcNAc(b1-3)GalNAc = biological target: GlcNAc(b1-3)GalNAc
# Procedure, shortened: as §1
# [5] = biological target: GlcNAc(b1-3)[GlcNAc(b1-4)][GlcNAc(b1-6)]GlcNAc
# Procedure, shortened: as §1
# [6] = biological target: GlcNAc(b1-3)[GlcNAc(b1-6)]Gal(b1-4)GlcNAc
# Procedure, shortened: as §1
# [7] = biological target: GlcNAc(b1-3)[GlcNAc(b1-6)]GlcNAc
# Procedure, shortened: as §1
# [8] = biological target: GlcNAc(b1-4)Gal(b1-4)GlcNAc
# Procedure, shortened: as §1
# [9] = biological target: GlcNAc(b1-4)GlcNAc(b1-4)GlcNAc
# Procedure, shortened: as §1
# [10] = biological target: GlcNAc(b1-4)GlcNAc(b1-4)GlcNAc(b1-4)GlcNAc(b1-4)GlcNAc
# Procedure, shortened: as §1
# [11] = biological target: GlcNAc(b1-4)GlcNAc(b1-4)GlcNAc(b1-4)GlcNAc(b1-4)GlcNAc(b1-4)GlcNAc
# Procedure, shortened: as §1
# [12] = biological target: GlcNAc(b1-4)[GlcNAc(b1-6)]GalNAc
# Procedure, shortened: as §1
# [13] = biological target: GlcNAc(b1-6)Gal(b1-4)GlcNAc
# Procedure, shortened: as §1
# GlcNAc(b1-6)GalNAc = biological target: GlcNAc(b1-6)GalNAc
# Procedure, shortened: as §1
# Kdn(a2-3)Gal(b1-3)GlcNAc = biological target: Kdn(a2-3)Gal(b1-3)GlcNAc
# Procedure, shortened: as §1
# Kdn(a2-3)Gal(b1-4)GlcNAc = biological target: Kdn(a2-3)Gal(b1-4)GlcNAc
# Procedure, shortened: as §1
# [14] = biological target: Man(a1-2)Man(a1-2)Man(a1-3)Man
# Procedure, shortened: as §1
# [15] = biological target: Man(a1-2)Man(a1-2)Man(a1-3)[Man(a1-2)Man(a1-3)[Man(a1-2)Man(a1-6)]Man(a1-6)]Man(b1-4)GlcNAc(b1-4)GlcNAc
# Procedure, shortened: as §1
# [16] = biological target: Man(a1-2)Man(a1-2)Man(a1-3)[Man(a1-2)Man(a1-6)[Man(a1-3)]Man(a1-6)]Man(b1-4)GlcNAc(b1-4)GlcNAc
# Procedure, shortened: as §1
# [17] = biological target: Man(a1-2)Man(a1-2)Man(a1-6)[Man(a1-3)]Man
# Procedure, shortened: as §1
# Man(a1-2)Man(a1-3)Man = biological target: Man(a1-2)Man(a1-3)Man
# Procedure, shortened: as §1
# [18] = biological target: Man(a1-2)Man(a1-3)[Man(a1-2)Man(a1-6)]Man
# Procedure, shortened: as §1
# [19] = biological target: Man(a1-2)Man(a1-3)[Man(a1-3)[Man(a1-6)]Man(a1-6)]Man(b1-4)GlcNAc(b1-4)GlcNAc
# Procedure, shortened: as §1
# [20] = biological target: Man(a1-2)Man(a1-3)[Man(a1-6)]Man(a1-6)[Man(a1-2)Man(a1-3)]Man(b1-4)GlcNAc(b1-4)GlcNAc
# Procedure, shortened: as §1
# Man(a1-3)[Man(a1-6)]Man = biological target: Man(a1-3)[Man(a1-6)]Man
# Procedure, shortened: as §1
# [21] = biological target: Man(a1-3)[Man(a1-6)]Man(a1-6)[Man(a1-3)]Man(b1-4)GlcNAc(b1-4)GlcNAc
# Procedure, shortened: as §1
# [22] = biological target: Man(a1-3)[Man(a1-6)]Man(b1-4)GlcNAc(b1-4)GlcNAc
# Procedure, shortened: as §1
# Man(b1-4)GlcNAc = biological target: Man(b1-4)GlcNAc
# Procedure, shortened: as §1
# Neu5Ac(a2-3)Gal = biological target: Neu5Ac(a2-3)Gal
# Procedure, shortened: as §1
# [23] = biological target: Neu5Ac(a2-3)Gal(b1-3)GalNAc
# Procedure, shortened: as §1
# [24] = biological target: Neu5Ac(a2-3)Gal(b1-3)GalNAc(b1-3)Gal(a1-4)Gal(b1-4)Glc
# Procedure, shortened: as §1
# [25] = biological target: Neu5Ac(a2-3)Gal(b1-3)GalNAc(b1-4)[Neu5Ac(a2-3)]Gal(b1-4)Glc
# Procedure, shortened: as §1
# [26] = biological target: Neu5Ac(a2-3)Gal(b1-3)GalNAc6S
# Procedure, shortened: as §1
# [27] = biological target: Neu5Ac(a2-3)Gal(b1-3)GlcNAc
# Procedure, shortened: as §1
# [28] = biological target: Neu5Ac(a2-3)Gal(b1-3)GlcNAc(b1-3)Gal(b1-3)GlcNAc
# Procedure, shortened: as §1
# [29] = biological target: Neu5Ac(a2-3)Gal(b1-3)GlcNAc(b1-3)Gal(b1-4)GlcNAc
# Procedure, shortened: as §1
# [30] = biological target: Neu5Ac(a2-3)Gal(b1-3)GlcNAc6S
# Procedure, shortened: as §1
# [31] = biological target: Neu5Ac(a2-3)Gal(b1-3)[Fuc(a1-4)]GlcNAc
# Procedure, shortened: as §1
# [32] = biological target: Neu5Ac(a2-3)Gal(b1-3)[Fuc(a1-4)]GlcNAc(b1-3)Gal(b1-4)[Fuc(a1-3)]GlcNAc
# Procedure, shortened: as §1
# [33] = biological target: Neu5Ac(a2-3)Gal(b1-3)[Neu5Ac(a2-3)Gal(b1-4)]GlcNAc
# Procedure, shortened: as §1
binder,measurement,setting,value
B1,glycan array binding signal (z-score),[1],0.259
same,glycan array binding signal (z-score),GlcNAc(b1-3)Gal,-0.36
same,glycan array binding signal (z-score),[2],-0.378
same,glycan array binding signal (z-score),GlcNAc(b1-3)Gal(b1-4)Glc,-0.393
same,glycan array binding signal (z-score),[3],-0.092
same,glycan array binding signal (z-score),[4],0.681
same,glycan array binding signal (z-score),GlcNAc(b1-3)GalNAc,-0.366
same,glycan array binding signal (z-score),[5],-0.396
same,glycan array binding signal (z-score),[6],-0.403
same,glycan array binding signal (z-score),[7],-0.382
same,glycan array binding signal (z-score),[8],-0.286
same,glycan array binding signal (z-score),[9],-0.397
same,glycan array binding signal (z-score),[10],-0.36
same,glycan array binding signal (z-score),[11],-0.409
same,glycan array binding signal (z-score),[12],-0.371
same,glycan array binding signal (z-score),[13],-0.365
same,glycan array binding signal (z-score),GlcNAc(b1-6)GalNAc,-0.401
same,glycan array binding signal (z-score),Kdn(a2-3)Gal(b1-3)GlcNAc,-0.396
same,glycan array binding signal (z-score),Kdn(a2-3)Gal(b1-4)GlcNAc,-0.211
same,glycan array binding signal (z-score),[14],1.54
same,glycan array binding signal (z-score),[15],2.1
same,glycan array binding signal (z-score),[16],2.91
same,glycan array binding signal (z-score),[17],1.79
same,glycan array binding signal (z-score),Man(a1-2)Man(a1-3)Man,0.754
same,glycan array binding signal (z-score),[18],2.22
same,glycan array binding signal (z-score),[19],2.6
same,glycan array binding signal (z-score),[20],1.74
same,glycan array binding signal (z-score),Man(a1-3)[Man(a1-6)]Man,0.693
same,glycan array binding signal (z-score),[21],0.332
same,glycan array binding signal (z-score),[22],-0.336
same,glycan array binding signal (z-score),Man(b1-4)GlcNAc,-0.275
same,glycan array binding signal (z-score),Neu5Ac(a2-3)Gal,-0.339
same,glycan array binding signal (z-score),[23],-0.376
same,glycan array binding signal (z-score),[24],-0.359
same,glycan array binding signal (z-score),[25],-0.384
same,glycan array binding signal (z-score),[26],-0.379
same,glycan array binding signal (z-score),[27],-0.334
same,glycan array binding signal (z-score),[28],-0.28
same,glycan array binding signal (z-score),[29],-0.302
same,glycan array binding signal (z-score),[30],-0.406
same,glycan array binding signal (z-score),[31],-0.076
same,glycan array binding signal (z-score),[32],0.181
same,glycan array binding signal (z-score),[33],-0.384
